In all, about 50,000 compounds went through this assay and about 800 (1.6%) showed an effect of 50% or more. This is one part of the list.

The target of this test is Bcl-2-like protein 10 (Homo sapiens) (UniProt Q9HD36). The test is described as follows: TR3 peptide-Bcl-B binding displacers, biochemical primary FP assay, phenotype converters (AID 1240).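 Also: 0% = Bcl-B with tracer peptide and DMSO and 100% = tracer peptide lacking Bcl-B.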 To be noted: GST-Bcl-B / FITC-TR3 peptide fluorescence polarization; stronger effect = higher value; compound at 3.75 mg/L.
Chain of UniProt Q9HD36 (Q9HD36 whole entry, looked up): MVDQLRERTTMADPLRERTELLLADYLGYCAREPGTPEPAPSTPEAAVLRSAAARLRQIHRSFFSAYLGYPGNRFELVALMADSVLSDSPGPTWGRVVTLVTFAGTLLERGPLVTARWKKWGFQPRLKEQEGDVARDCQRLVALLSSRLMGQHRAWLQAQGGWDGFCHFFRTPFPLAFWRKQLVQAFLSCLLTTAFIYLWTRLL
With `Cc1nc2ccccn2c(=O)c1[N+](=O)[O-]`, the displacement was found to be 17.1%. Turning to `Cc1cc(C)n2c(SCc3ccc(Cl)cc3Cl)nnc2n1`, the displacement is -10%. The result for `O=C(Oc1ccc([N+](=O)[O-])cc1)c1cc(S(=O)(=O)N2CCOCC2)ccc1Cl` reads -2.8%. The result for `O=C(O)CCSc1nc2ccccc2c(=O)[nH]1` reads 14.4%; that for `O=C1C2C3C=CC(O3)C2C(=O)N1Cc1ccccc1` (centres undefined), 0.5%; that for `O=C(O)CCC(=O)Nc1ccc(F)cc1`, -7.3%.

`Cc1ccc2oc(-c3ccc(C)c(NC(=O)c4ccc(Br)o4)c3)nc2c1`: the displacement was -4.5%.

Take `COc1cccc(N2C(=O)/C(=C/c3ccc(C)o3)SC2=S)c1`: the displacement was found to be 39.6%.

As to `O=C1N/C(=C/c2ccccc2)C(O)=C1C=NCc1ccccc1`, the displacement worked out at 2%.

On to `CC(C)C(=O)Nc1ccc(Cl)c(-c2nc3cc(Cl)ccc3o2)c1`, for which the displacement is -36.4%. The result for `O=C(Nc1ccncc1)c1ccc(C(=O)Nc2ccncc2)cc1` reads 16.1%; that for `NC(=O)c1ccc(NC(=O)c2ccc(Cl)c(Cl)c2)cc1`, -0.4%.

Turning to `Cc1cc(=O)c2c(C)nc(-c3ccccc3)nc2[nH]1`, the displacement amounted to 31.5%. As to `O=C(Nc1ccc(N2CCOCC2)cc1)c1ccco1`, the displacement is 0.5%. Take `CC(C)COc1ccc2[nH]c3c(c2c1)CCC/C3=N\N`: the displacement was determined as 15.9%.

On to `CN1CCN(NC(=S)Nc2ccc([N+](=O)[O-])cc2)CC1`, for which the displacement was -6.5%.

On to `O=[N+]([O-])c1ccc(Cl)c(-n2ncnc2-c2cccnc2)c1`, for which the displacement was -1.9%.

With `CCCC1=NN2C(=N)/C(=C/c3ccc(OCc4ccccc4Cl)cc3)C(=O)N=C2S1`, the displacement is -12.7%. The result for `COc1cc(C(=O)NC(NC(=S)Nc2cccc3ccccc23)C(Cl)(Cl)Cl)cc(OC)c1OC` (centres undefined) reads -6.4%.

Consider `FC(F)(F)c1cc(-c2ccccc2)n[nH]1`, for which the displacement was 17.1%. The result for `O=C(c1ccc(Cl)cc1)N1CCN(c2ccc(Cl)cc2[N+](=O)[O-])CC1` reads -0.7%; that for `COc1cc2c(cc1NC(=O)Cc1ccc(Cl)cc1)oc1ccccc12`, -4.6%; that for `O=[N+]([O-])c1ccccc1C=Nc1cc2c(cc1Br)OCCO2`, -4.8%. The result for `O=C(Cc1ccc(Br)cc1)Nc1nc2ccccc2s1` reads 7.1%; that for `CC1=C(C(=O)Nc2ccc(C)cc2)C(c2ccccc2F)NC(=S)N1` (centres undefined), -9.3%; that for `COc1ccc(N(CC(=O)Nc2ccc(Cl)cc2)S(=O)(=O)c2ccc(C)cc2)cc1`, 6.6%. As to `CC1=NN(C(=S)c2ccccc2)C(C)(O)C1` (centres undefined), the displacement is 16.2%.

For the molecule `CCOc1cc(C2C3=C(CC(C)(C)CC3=O)NC3=C2C(=O)c2ccccc23)ccc1O` (centres undefined), the displacement is -0.8%. Consider `N#CCSc1nc(-c2ccccc2)c(-c2ccccc2)o1`, for which the displacement is 5.9%. The result for `CCOc1ccc(NC(=O)C(C)C)c([N+](=O)[O-])c1` reads -1.9%.

For the molecule `CCCSc1nnc(NC(=O)/C=C/c2ccccc2)s1`, the displacement was 9.8%.

For `Cc1cc(=O)[nH]c(N/N=C/c2cc([N+](=O)[O-])ccc2O)n1`, the displacement is -18%. With `CCSc1nnc(-c2ccc(Cl)cc2)c2ccccc12`, the displacement is -11.5%.

As for `CC1C(c2ccccc2)NC(c2ccccc2)C(C)C1(O)C#Cc1ccccc1` (centres undefined), the displacement was -10%. `O=C1NC(=O)N(c2ccc(F)cc2)C(=O)/C1=C/c1cc(Cl)c(O)c(Cl)c1`: the displacement was -15.6%. Consider `COC(=O)C1=C(C)N=C2SCC(=O)N2C1c1ccccc1` (centres undefined), for which the displacement is -102%. Turning to `CCOC(=O)c1c(N2CCNCC2)c2ccccc2[nH]c1=O`, the displacement was -7.3%.

Take `O=C(O)CCNC(=O)/C(=C\c1ccccc1)NC(=O)c1ccccc1`: the displacement stood at 0.2%. `CCOC(=O)C1=C(C)N=c2s/c(=C\c3cn(C)c4ccccc34)c(=O)n2C1c1ccc(OC)c(OC)c1` (centres undefined): the displacement was determined as 29.1%. The result for `Cc1ccc(C(C)NC(=O)Cc2ccccc2)cc1` (centres undefined) reads 13.2%; that for `CCOC(=O)c1c(N2C(=O)CC(Sc3nc4ccccc4s3)C2=O)sc2c1CCCC2` (centres undefined), -8.2%; that for `COC(=O)c1ccc(C(=O)Nc2cc(Cl)ccc2Cl)cc1NC(=O)c1cccs1`, -8.4%. The result for `CCOC(=O)Nc1ccc(C(C)CC)cc1` (centres undefined) reads 2.4%. In the case of `O=C(NCCOc1ccc(Cl)cc1)C(O)(c1ccc(Cl)cc1)c1ccc(Cl)cc1`, the displacement is -7.2%. The result for `Cc1ccccc1OCCOc1ccccc1/C=N/n1cnnc1` reads -10.1%. The result for `O=C(O)CNC(=O)c1sc2ccccc2c1Cl` reads 2.1%; that for `Cc1onc(-c2c(Cl)cccc2Cl)c1C(=O)N1C(C)CCCC1C` (centres undefined), 11.4%. The result for `O=C(N/C(=C/c1cccc([N+](=O)[O-])c1)C(=O)N1CCCCC1)c1ccco1` reads 8.1%; that for `CC(=O)Nc1ccc(S(=O)(=O)N2c3ccc(C)cc3C(C)=CC2(C)C)cc1`, 3.7%; that for `COc1ccc(S(=O)(=O)Nc2nccs2)cc1`, -12.9%. Consider `COc1cc2c(cc1OC)C(=O)NC1(CCCC1)C2`, for which the displacement was -1%. `CCOc1ccc(S(=O)(=O)N(CC(=O)Nc2ccccc2Br)c2ccc(C)cc2)cc1`: the displacement is -0.4%. As to `O=C(NC1CCCCC1)N1CCN(C(c2ccccc2)c2ccccc2)CC1`, the displacement was found to be 0.1%.

`CCOC(=O)c1[nH]c2c(C)cccc2c1CCN1C(=O)c2ccccc2C1=O`: the displacement was -12.1%.

Turning to `CCCC(=O)Nc1cccc(NC(=O)c2ccc(OC)c(Br)c2)c1`, the displacement is -19%. The result for `CC(=O)c1cccc(NC(=O)c2ccc(OCc3ccccc3)cc2)c1` reads -13.3%. The result for `CC(C)(O)C#Cc1ccc(C(=O)NCc2ccco2)cc1` reads -0.4%; that for `O=C1/C(=C\c2ccc3c(c2)OCO3)SC(=S)N1C1CCS(=O)(=O)C1` (centres undefined), 106%. The result for `CCC1S/C(=N/N=C(/C)c2ccc(Br)cc2)NC1=O` (centres undefined) reads -22.5%; that for `COc1ccccc1CNC(=O)CC(C)=O`, -2.7%. With `O=C(c1ccc([N+](=O)[O-])cc1)n1c2c(c3ccccc31)CCCC2`, the displacement was 7.5%.

For the molecule `O=C(CSc1nc2sc3c(c2c(=O)[nH]1)CCCC3)NCCO`, the displacement stood at 3.9%.

For `COc1ccccc1OCCOc1ccc(/C=N/n2cnnc2)cc1`, the displacement was 3.9%. As for `Cc1cccc(C)c1NC(=O)/C=C/c1cccc([N+](=O)[O-])c1`, the displacement is -2.9%.

For the molecule `COc1c(Cl)cc(Cl)cc1/C=c1\sc2nc3c(C)c(C)ccc3n2c1=O`, the displacement is -6.7%. The result for `Cc1ccc(S(=O)(=O)NCCC(=O)Nc2ccc([N+](=O)[O-])cc2)cc1` reads 9.1%; that for `Clc1ccc(/C=N/Nc2nc(N3CCOCC3)nc(N3CCOCC3)n2)cc1Cl`, 5.1%; that for `O=C(/C(=C\c1ccc(Cl)cc1)c1nc2ccccc2s1)c1ccccc1`, -43%. For the molecule `CC(C)(C)c1ccc(C(=O)NCCOc2ccccc2F)cc1`, the displacement was -13.8%.

With `Cc1cc(Br)ccc1NC(=O)c1cccc([N+](=O)[O-])c1C`, the displacement was -0.1%.

As for `COc1ccc(C2C(C(=O)c3cccs3)=C(O)C(=O)N2c2nncs2)cc1OC` (centres undefined), the displacement stood at 84.6%. For `FC(F)(F)c1ccc(N/N=C/c2ccc3c(c2)OCO3)nc1`, the displacement was 9.9%. The result for `Cc1cc(NS(=O)(=O)c2ccc(Nc3nc(-c4sc(N)nc4C)cs3)cc2)no1` reads -1.9%; that for `COc1ccc(-c2nc3cc(NC(=O)COc4ccc([N+](=O)[O-])cc4)ccc3o2)cc1Br`, -2.2%. For the molecule `N#Cc1c(NC(=O)c2cnccn2)sc2c1CCCCCC2`, the displacement came out at 6.1%. The result for `COc1cc(/C=C(\C#N)C(=O)c2ccccc2)ccc1O` reads -23.9%; that for `COc1cc(C2NC(=S)NC(C)=C2C(=O)Nc2ccc(Br)cc2)ccc1O` (centres undefined), 2.6%; that for `O=C1NC(=S)S/C1=C/c1ccccc1OS(=O)(=O)c1ccccc1[N+](=O)[O-]`, 11.9%. The result for `CC1=NN(c2ccccc2)C(=O)/C1=C/c1ccc(OS(=O)(=O)c2ccccc2[N+](=O)[O-])cc1` reads -8.1%; that for `Cc1ccc(/C=C(\C#N)c2nc3ccccc3n2C)o1`, -12.7%. The result for `CC(C)CC(=O)NC(NC(=O)CC(C)C)c1ccc(Br)cc1` reads 4.4%. Consider `O=C1C(=O)N(CCCn2ccnc2)C(c2ccc(Cl)cc2)/C1=C(\O)c1ccc(Cl)cc1` (centres undefined), for which the displacement was -5.8%.

Take `O=[N+]([O-])c1cc(Br)c(O)c(/C=N/Nc2nc3ccccc3[nH]2)c1`: the displacement was -1.3%. The result for `CCC(Sc1nc2ccccc2s1)C(=O)Nc1ccc([N+](=O)[O-])cc1` (centres undefined) reads -12%; that for `O=C(CSc1nnc(-c2ccccc2)n1-c1ccccc1)N/N=C/C=C/c1ccccc1`, 0.7%; that for `Cc1ccc2c(c1)c1c3n2CCN(C(=O)c2ccc([N+](=O)[O-])cc2)C3CCC1` (centres undefined), 0.7%. With `COc1ccccc1C(=O)N1CCN(Cc2ccc(Cl)cc2)CC1`, the displacement is -17.9%. On to `CCOC(=O)c1c(NC(=O)Oc2ccccc2)sc2c1CCC2`, for which the displacement was determined as 12.9%. Take `O=C(/C=C/c1ccc(Cl)cc1)Nc1ccc(-c2nc3ccccc3o2)c(O)c1`: the displacement was -0.3%. `CCC(=O)Nc1ccc(NC(=O)c2ccccc2[N+](=O)[O-])cc1`: the displacement came out at 5.2%. The result for `COc1ccc(C(=O)NCC2(c3ccc(OC)c(OC)c3)CCCCC2)c(OC)c1` reads -14.3%. The result for `CC(=O)Nc1ccc(C2NN=C(c3ccc(C)cc3)S2)cc1` (centres undefined) reads 49.6%; that for `CCn1c(C)nc2cc(S(=O)(=O)N3CCCC3)ccc21`, 16.9%. The result for `O=C(NC(=S)Nc1ccc(-c2nc3ccccc3o2)cc1)c1ccco1` reads 11.6%; that for `COc1cc(C=Nc2cccc(Br)c2)ccc1O`, 7.9%. Take `Cc1ccc2[nH]c3nc(N/N=C/c4cccc(Cl)c4)nnc3c2c1`: the displacement was determined as 4.8%.

`N#C/C(=C/c1ccc(-c2ccccc2C(=O)O)o1)C(=O)Nc1ccc2ccccc2c1`: the displacement was found to be 18.9%.

For the molecule `COc1ccc(S(=O)(=O)N2CCN(Cc3ccc(Cl)cc3)CC2)cc1`, the displacement was 12.2%. The result for `CC(=O)N(C)c1ccc(NC(=O)c2ccc(F)cc2)cc1` reads -0.3%; that for `COc1ccccc1Nc1nc(C(F)(F)F)c(-c2ccccc2)s1`, 7.8%. With `C/C(Nc1ccc(C)cc1)=C(/C#N)C(N)=O`, the displacement was -3.5%.

For `CCN(CC)c1ccc(NC(=O)Nc2ccccc2)cc1`, the displacement was -5.4%. For `CC1=C(C(=O)OC2CCCCC2)C(c2cccc(Cl)c2)C2=C(CCCC2=O)N1` (centres undefined), the displacement was 5.2%. With `O=c1/c(=C/c2cn(Cc3ccc(F)cc3)c3ccccc23)sc2nc3ccccc3n12`, the displacement was determined as 2.3%. The result for `COc1cc(NC(=O)c2cc(OC)c(OC)c(OC)c2)ccc1NC(=O)c1ccco1` reads -13.2%; that for `CCc1ccc(N2C(=O)NC(=O)/C(=C\c3cc(I)c(O)c(OC)c3)C2=O)cc1`, -7.2%.

As to `CC(=O)Oc1ccc(C(=O)Nc2cc([N+](=O)[O-])ccc2O)cc1`, the displacement is 7.1%. On to `CCCCOC(=O)CCN1C(=O)/C(=C\c2cccs2)SC1=S`, for which the displacement was -19.6%. The result for `CCOc1ccc(NC(=O)C2=C(C)NC(=S)NC2c2c(OC)ccc3ccccc23)cc1` (centres undefined) reads 13.5%.

The values above are taken from PubChem BioAssay AID1240 (Sanford-Burnham Center for Chemical Genomics, 2008).
